According to US20250057819A1, “DRUG COMBINATIONS FOR INHIBITING CORONAVIRUS REPLICATION” (priority 2021, published 2025):
Counter-ions that a name gives are not always drawn.

How the values were obtained:
[1] = system: rHCoVs-OC43; assay: organism not typed; format: cell-based; conditions: for EC50: HRT-18, 48 h
[2] = Cell viability assay (MTT) in HRT-18 cells; conditions: human, CC50 (μM), drug alone, 48 h treatment

## CC/C(=C(\c1ccccc1)c1ccc(OCCN(C)C)cc1)c1ccccc1 [Tamoxifen]
[1]
  EC50: 3.4 µM

## CCN(CC)CCOc1ccc(C(=C(Cl)c2ccccc2)c2ccccc2)cc1 [Clomiphene citrate]
[1]; 48 h
  IC50: 4.5 µM
[1]
  EC50: 4.5 µM

## CSc1ccc2c(c1)N(CCC1CCCCN1C)c1ccccc1S2 (stereo not drawn) [Thioridazine hydrochloride]
[1]
  IC50: 1 µM
  EC50: 1 µM
[1]; 48 h
  IC50: 1 µM

## CN1CCC[C@@H]1CCO[C@](C)(c1ccccc1)c1ccc(Cl)cc1 [Clemastine fumarate]
[1]; 48 h
  IC50: 5 µM
[1]
  EC50: 5 µM

## CC(C)(C)c1ccc(C(=O)CCCN2CCC(OC(c3ccccc3)c3ccccc3)CC2)cc1 [Ebastine]
[2]
  CC50 at 48 h: > 10 µM
[1]
  EC50: > 10 µM

## CN(C)CCCN1c2ccccc2CCc2ccc(Cl)cc21 [Clomipramine hydrochloride]
[1]
  EC50: 3.8 µM

## CN[C@H]1CC[C@@H](c2ccc(Cl)c(Cl)c2)c2ccccc21 [Sertraline hydrochloride]
[1]
  EC50: 2.3 µM
